Results from article PMC4336329 (PLoS ONE, 2015).
The campaign covered roughly 310,000 compounds. About 2,200 (0.71%) showed an effect of 50% or more. Effects have a minus sign here. The list shows a part of the results.

target: human ether-à-go-go-related gene (hERG) potassium channel (human, UniProt Q12809); test: primary screen, population patch clamp on CHO cells stably expressing hERG
Sequence (Q12809 whole entry, looked up): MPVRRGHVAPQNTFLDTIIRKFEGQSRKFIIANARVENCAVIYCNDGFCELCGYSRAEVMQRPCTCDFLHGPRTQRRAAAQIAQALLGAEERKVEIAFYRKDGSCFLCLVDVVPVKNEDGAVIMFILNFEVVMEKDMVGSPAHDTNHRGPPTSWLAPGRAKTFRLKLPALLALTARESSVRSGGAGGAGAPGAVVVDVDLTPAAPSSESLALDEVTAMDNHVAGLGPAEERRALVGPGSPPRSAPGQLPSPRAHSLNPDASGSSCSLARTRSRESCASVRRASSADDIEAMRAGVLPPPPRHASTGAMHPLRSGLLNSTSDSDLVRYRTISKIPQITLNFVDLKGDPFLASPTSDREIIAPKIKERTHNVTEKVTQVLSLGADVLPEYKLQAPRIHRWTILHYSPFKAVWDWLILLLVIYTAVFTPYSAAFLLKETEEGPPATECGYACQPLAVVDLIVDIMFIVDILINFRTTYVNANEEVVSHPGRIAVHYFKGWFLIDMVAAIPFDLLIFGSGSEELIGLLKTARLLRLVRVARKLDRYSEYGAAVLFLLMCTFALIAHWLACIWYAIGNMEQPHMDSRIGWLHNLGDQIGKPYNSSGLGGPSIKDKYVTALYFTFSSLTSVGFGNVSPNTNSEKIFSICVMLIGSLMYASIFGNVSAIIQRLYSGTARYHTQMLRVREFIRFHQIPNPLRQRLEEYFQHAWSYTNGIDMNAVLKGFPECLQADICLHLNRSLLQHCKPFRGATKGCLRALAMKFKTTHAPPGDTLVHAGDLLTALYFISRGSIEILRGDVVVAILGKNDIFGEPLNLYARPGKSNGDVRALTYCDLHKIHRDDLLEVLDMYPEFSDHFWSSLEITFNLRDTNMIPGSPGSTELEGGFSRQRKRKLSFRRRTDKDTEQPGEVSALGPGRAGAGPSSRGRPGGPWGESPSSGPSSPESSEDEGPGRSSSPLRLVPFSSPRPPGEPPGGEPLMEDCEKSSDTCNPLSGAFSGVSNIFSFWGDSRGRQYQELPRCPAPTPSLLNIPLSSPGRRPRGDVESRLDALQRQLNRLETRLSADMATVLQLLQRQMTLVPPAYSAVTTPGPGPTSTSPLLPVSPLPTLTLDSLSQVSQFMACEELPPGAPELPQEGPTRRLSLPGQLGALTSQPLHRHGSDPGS

In order of rising “hERG current change (%, negative = inhibition) at 1uM” value:
1. O=C(CCCN1CCC(NC(=O)c2ccccc2)CC1)c1ccc(Cl)cc1  -59.5%
2. CC(CCc1ccccc1)NC(=O)c1ccc(-n2cncn2)c([N+](=O)[O-])c1 (centres unmarked)  -27.2%
3. Cn1c(CN2CCCC(C(=O)c3ccc4c(c3)OCO4)C2)nc2ccccc21 (centres unmarked)  -21.8%
4. OCCC1CN(Cc2cccc(-c3ccco3)c2)CCN1Cc1ccsc1 (centres unmarked)  -17.3%
5. O=C(C1CCCN(c2ncnc3c2nc2n3CCCCC2)C1)N1CCN(c2ccccc2)CC1 (centres unmarked)  -14.1%
6. Cc1cc(Br)ccc1OCCN1CCCC1.O=C(O)C(=O)O  -7.85%
7. COCCN(Cc1ccccc1)C(=O)c1ccc2c(=O)n3c(nc2c1)CCC3  -6.57%
8. COc1cccc(NC=C2C(=O)OC(C)(C)OC2=O)c1  -3.51%
9. CCOc1ccc(-c2nnc(-c3ccccc3)n2-c2ccccc2)cc1  -3.47%
10. Cc1ccc(C)c(NC(=O)CN(C)C(=O)c2cccc(-n3cccc3)c2)c1  -1.33%
11. Cc1ccc(N2CC(C(=O)NNC(=O)c3ccc(F)cc3)CC2=O)cc1 (centres unmarked)  -1.31%
12. CCCCNC(=O)CNC(=S)N(Cc1ccccc1)Cc1cccs1  -1.02%
13. Cc1ccc(/C=N/NC(=O)c2ccc(Br)o2)s1  -0.912%
14. OCC1(CCOc2ccccc2)CCN(Cc2cc(Cl)ccc2O)CC1  -0.875%
15. NC(=O)[C@@H]1CC2(CC(c3cccc(NC(=O)CC(c4ccccc4)c4ccccc4)c3)=NO2)CN1C(=O)[C@@H]1CCC(=O)N1 (some centres unmarked)  0.0108%
16. CN(CCCNC(=O)c1cccc(N2CCCC2=O)c1)c1ccccc1  0.567%
17. Cc1ccc(-c2cn(C[C@H]3CC[C@@H]([C@@H]4CC[C@H](Cn5cc(-c6ccc(C)cc6)nn5)O4)O3)nn2)cc1  0.937%
18. Cn1c(NCc2cccnc2)nc2c1c(=O)n(Cc1ccccc1F)c(=O)n2C  2.05%
19. O=C(Cc1ccccc1F)Nc1nc(-c2cccs2)cs1  2.28%
20. CC(/C=N/NC(=O)CNc1n[nH]c(=O)[nH]c1=O)c1ccccc1 (centres unmarked)  2.65%
21. O=C(CSc1nc2c(c(=O)[nH]1)CCC2)Nc1ccccc1Cl  2.71%
22. CCC(Sc1nc2c(cnn2-c2ccccc2)c(=O)[nH]1)C(=O)OC (centres unmarked)  2.96%
23. O=C(CN1C(=O)C2C3C=CC(C3)C2C1=O)Nc1nc(SCc2ccc(Cl)cc2)n[nH]1 (centres unmarked)  3.35%
24. CNC(=S)N(CCc1c(C)[nH]c2ccc(Cl)cc12)Cc1cc(OC)c(OC)c(OC)c1  3.8%
25. COc1ccc(C(CNC(=O)C(CCSC)NC(=O)c2ccccc2OC)N2CCCCC2)cc1 (centres unmarked)  3.85%
26. Cc1onc(-c2ccccc2Cl)c1C(=O)NC1CCS(=O)(=O)C1 (centres unmarked)  3.87%
27. O=C1C2CC=CCC2C(=O)N1c1ccc(OCC(O)Cn2nnc3ccccc32)cc1 (centres unmarked)  4.09%
28. O=C(c1ccco1)N1CCN(Cc2c(F)cccc2Cl)CC1  4.47%
29. Cc1cc(C(=O)CN2C(=O)C(=O)N(Cc3ccco3)C2=O)c(C)n1CCc1ccccc1  4.99%
30. Nc1nn2cc(-c3ccc(Br)cc3)nc2c2ccccc12  5.13%
31. CC1(C)CC(=O)C=C(NCc2ccco2)C1  5.26%
32. FC(F)(F)c1cccc(N2CCN(c3nnnn3-c3ccccc3)CC2)c1  5.28%
33. O=C(NCCc1ccc(F)cc1)c1ccncc1  5.58%
34. Cc1ccccc1OCC(=O)NNC(=O)CCN1C(=O)c2ccccc2C1=O  5.62%
35. CC(C)c1ccc(NC(=O)CSc2nnc(OC(=O)N(C)C)n2C2CC2)cc1  5.72%
36. COc1ccc(NC(=O)NCCCN2CCCC2=O)cc1  5.78%
37. COc1ccccc1NC(=O)NCC(=O)Nc1ccc(F)c(F)c1  5.97%
38. Cc1cc(OCc2cc(C(=O)NCc3csc(C(C)C)n3)no2)cc(C)c1Cl  6.13%
39. Cc1ccc(NC(=S)N2CCC(NC(=O)c3cccc(F)c3)CC2)cc1  6.17%
40. C=C(C)[C@@H]1CCC2(C(=O)O)CC[C@]3(C)[C@H](CC[C@@H]4[C@@]5(C)CCC(=O)C(C)(C)[C@@H]5CC[C@]43C)[C@@H]12 (some centres unmarked)  6.31%
41. CC(=O)N1CCN(Cc2nc3cc(NC(=O)COc4ccccc4)ccc3n2C)CC1.Cl  6.75%
42. COc1ccccc1CCNC(=O)C(=O)NCC1OCCN1S(=O)(=O)c1ccccc1 (centres unmarked)  7.32%
43. Cc1cc(C(N)=O)c2cc(Br)ccc2n1  7.63%
44. Cc1ccc(N)c(N)c1  7.71%
45. O=C(NCC(NS(=O)(=O)OCC(Cl)(Cl)Cl)c1ccccc1)C(F)(F)F (centres unmarked)  7.85%
46. CCCCc1ccc(NC(=O)c2cnccn2)cc1  7.91%
47. COC(=O)c1ccccc1NC(=O)c1cnn2c(C(F)F)cc(C3CC3)nc12  7.98%
48. N#CC1=C2N=C(N)c3c(sc4c3CCCCC4)N2C2=C(C(=O)CCC2)C1c1ccccc1 (centres unmarked)  8.01%
49. COc1ccc(CNC(=O)CCCCCn2c(SCC#N)nc3cc4c(cc3c2=O)OCO4)cc1  8.04%
50. Cc1cc(NC(=O)CCC(=O)N(Cc2ccco2)C(C(=O)NC2CCCCC2)c2ccccc2)no1 (centres unmarked)  8.22%
51. CCN(CC)S(=O)(=O)c1ccc2c(c1)nc(SCC(=O)N(C)C1CCS(=O)(=O)C1)n2CC (centres unmarked)  8.33%
52. CC(C)Oc1ccc(C(CC(=O)O)c2ccc(F)cc2)cc1 (centres unmarked)  8.35%
53. CCCCc1cc(=O)oc2c3c(cc(OCC(=O)NCCCO)c12)OC(C)(C)CC3  8.46%
54. CC1CN(C(=S)c2cccc([N+](=O)[O-])c2)CC(C)O1 (centres unmarked)  8.72%
55. CCc1ccc(C(=O)Cn2ncc(Cl)c(Cl)c2=O)cc1  8.96%
56. O=C(c1ccccc1)N(Cc1ccccc1)Cc1ccccc1  9.35%
57. NC(=O)[C@@H]1CCCN1Cc1nc(Cc2ccccc2F)no1  9.4%
58. O=C(COC(=O)/C=C/c1ccco1)NCc1ccco1  9.79%
59. CSc1nnc([C@H](Cc2c[nH]c3ccccc23)NC(=O)OC(C)(C)C)o1  9.8%
60. Cc1cc(C)nc(SC2CC(=O)N(c3ccc(Br)cc3)C2=O)n1 (centres unmarked)  9.87%
61. C/C(=N\NC(=O)C1CC1)c1cccnc1  9.94%
62. COC(=O)[C@H](Cc1c[nH]c2ccccc12)NC(=O)Cc1c[nH]c2ccccc12  9.96%
63. COc1cccc(NC(=S)N(C)C2CCN(C)CC2)c1  11%
64. Cc1nc(NC(=O)c2ccccc2)sc1-c1csc(Nc2cccc(F)c2)n1  11%
65. COc1cc(NS(=O)(=O)c2ccc(N/C=C\C(=O)c3ccc(OC)c(OC)c3)cc2)nc(OC)n1  11.4%
66. N#Cc1nccnc1S(=O)(=O)c1cccs1  11.4%
67. CCC1C(=O)NCCN1C(=O)c1ccc(OC)c(OC2CCN(C(C)=O)CC2)c1 (centres unmarked)  11.7%
68. NS(=O)(=O)c1cccc(NC(=O)CN2CCc3ccccc32)c1  11.8%
69. c1cnc2cc(-c3ccsc3)ncc2c1  11.9%
70. COc1cc(OC)cc(-c2nc(=S)n3ccsc3n2)c1  12.4%
71. CC(=O)Nc1cccc(/C(C)=N/NC(=O)c2cccs2)c1  12.7%
72. C/C(=N\Nc1nc2ccccc2[nH]1)c1ccc2c(c1)OCO2  12.7%
73. O=C(COC(=O)c1n[nH]c(=O)c2ccccc12)c1ccccc1  12.9%
74. CN1CCCN(C(=O)COc2ccc(F)cc2F)CC1  13%
75. Clc1ncc2[nH]cnc2n1  13.2%
76. Nc1nc(NCC(=O)O)nc(NCc2ccccc2)c1[N+](=O)[O-]  13.3%
77. Cc1cccc(N(C(=O)c2ccc(CN3CCOCC3)o2)C(C(=O)NC(C)(C)C)c2ccc(F)cc2)c1 (centres unmarked)  13.3%
78. NS(=O)(=O)c1ccc(Sc2ccc3c(c2)CCC3)nc1  13.9%
79. CCP(=S)(CC)c1ccc(N(C)C)cc1  14%
80. O=C(c1ccc(CNS(=O)(=O)c2ccc(Br)cc2)cc1)N1CCCCC1  14%
81. CCOc1ccc(CCNC(=O)COC(=O)Cn2cnc3ccccc3c2=O)cc1OCC  14.2%
82. COc1cc(C)c(C(N)=O)c(OC)n1  14.4%
83. Cc1ccc(C(=O)OCC(=O)NC2CCCC2)cc1  14.6%
84. COc1cccc(OC)c1OCCCOc1ccc(C)cc1Br  14.8%
85. COCCNC(=O)CCc1nnc(C2(c3ccc(Cl)cc3)CCC2)o1  16.3%
86. CC1C=CC(C)C(C(=O)O)C1C(=O)O (centres unmarked)  17.3%
87. Cc1ccc([N+](=O)[O-])cc1N(CC(=O)NC1CCCC1)S(C)(=O)=O  17.8%
88. Cc1cccc(NS(=O)(=O)c2ccc(Cl)cc2)n1  18.3%
89. CC(C)(C)c1ccc(COn2c(=O)c(-c3ccco3)[n+]([O-])c3ccccc32)cc1  20.1%
